Variants at the floor of the assay are shown more often than the library holds them.
B1: TPR 5TU (parent)
chain: GGAUCUUCUCGAUCUAACAAAAAAGACAAAUCUGCCACAAAGCUUGAGAGCAUCUUCGGAUGCAGAGGCGGCAGCCUUCGGUGGCGCGAUAGCGCCAACGUUCUCAACUAUGACACGCAAAACGCGUGCUCCGUUGAAUGGAGUUUAUCAUG

Variants of: B1
Assay: polymerase ribozyme fitness, log enrichment relative to wild type (log ratio); higher = more active; in vitro selection for triplet polymerase activity
Outline: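 PCR was used to build mutant libraries for each subunit of a heterodimeric triplet polymerase ribozyme, which were then transcribed. A single in vitro selection round, in triplicate, used a frozen incubation at −7 °C and recovered extended constructs by gel excision, streptavidin beads and RT-PCR. Fitness is the logarithm of genotype enrichment relative to wild-type enrichment, averaged over replicates with inverse-variance weights. The logarithm is base 2, and after Illumina sequencing only genotypes with ≥10 input reads and ≥1 read per output were kept.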

Polymerase ribozyme fitness (log ratio), -4.04:
G65C C85U

Polymerase ribozyme fitness (log ratio), -1.66:
G62A C103U

Polymerase ribozyme fitness (log ratio), -0.467:
A60G G94U

Polymerase ribozyme fitness (log ratio), -1.01:
U61G G83A

Polymerase ribozyme fitness (log ratio), -3.93:
A60G U90A C95A G117A

Polymerase ribozyme fitness (log ratio), -1.93:
G62A G84A U135A
G62A C93A

Polymerase ribozyme fitness (log ratio), -0.98:
U61A G117A

Polymerase ribozyme fitness (log ratio), 1.26:
A60G C116A

Polymerase ribozyme fitness (log ratio), -3.45:
A66G C85U

Polymerase ribozyme fitness (log ratio), -3.47:
A66C C76U

Polymerase ribozyme fitness (log ratio), -3.23:
U61A C99G

Polymerase ribozyme fitness (log ratio), -2.89:
G65A G84U

Polymerase ribozyme fitness (log ratio), -3.68:
A66G C87U

Polymerase ribozyme fitness (log ratio), -0.741:
G62C G141C

Polymerase ribozyme fitness (log ratio), -3.65:
A60U C87U U135C

Polymerase ribozyme fitness (log ratio), ≤ -4.2:
A60G G94U G117U U130G C132G
A64G A98U C114A G141C
U61A C76U C103G G143U
C63U C87U A107C
A66C G143A
A64U G68U G83A G94A
A60G G68A U139A
A64C C76U A98G G100A G128U U134G
C63A C79A U90A G143C
U61A G83A C85G A107G
A64U A97U C131A
A66G C96A A110G
A66G G68A C79U C93A A98G U102G C132G U134C G143C
U61G A64G G81U C85A U102C C132A
A60G U61G A64U G65U G92C A98G A150U
G65A G94U G100A C108A
A64U G84C
U61G C87G
U61A A66G U111G C116U U139A
A64G C85U A91G C99U C105G
G65C C93G
A66G C87G C99G U135G
U61A C72U C103A
G62A G68C C76A C87G C105A G141C
G62C A137C U148G
A66G A73G C93U U148A
A64U U78G G88C
A64G G83U G124U
G62C C72U C93U G133A G141U
U61G C72G C79U U82G C85U G141U G152A
C63A A91G C96U
A64G C93G U146G U151C
G62C C72U C85U C108U
G67A A73C C87G
C63A G68C C87A G117A U148C
A66G G70A C96A
A66U C69A C131G
U61A U78G G84U A89G
A60U G88C C93U
A66U C93U A107C G143U
G65U A97U A115U
A66G G74C
A66U C87U U102A G136A
C63G G68U C72G G92A C105U G133U
A64U C96U C103U U144A
A60U C63G G133U
U61A C76G G124A
A60G G67A U111A A150C
C63U C79G G94A A110G G143U
U61A U77A
U61A U77C
A66U G86U C103A A142G
A66G A137G
U61C C85G G136A A142G
U61C C132U
A64C C69U G86U G88U A89G C93U U144C
C63U A64C A113C A120C
A60U U78A G81C C85G C103G
G65A A73G G84C U111A
A60G G70C A107C U111A
A64U C87A C95U U139A
A64U C72A
G65A C132G A142U
A64C C96A C103A A115C
U61G A89G G92U C116U U135C
U61G G94C A98C U109C G141A A142C U146C
G62U C72A U78C A91G G94U
A64G A89C U90G C149U
U61G G92C C95U C105U A106C U109C A138G
A64G G84A C99A C114A
A60G G88U C96G U145G U146A
A60U C93A A97C A98U C129G
G62A G128A
A66G U101G A107G A120G U139A
G62C A64C G86C C87G G128U U145G
A66U G84U C87A
A66G G83C U111G
A64C G71A U144G U148G
A66U A73G C85G C95A C123U C125G A150G
G65U A91U A107C A115U
A66U G84U G86C A89U
G65U G80U
U61G G70U G81A C87U C131G
C63U C79U A91U
G62C A64U U78G U127G U146G
A66U G71A A91C A147C
U61A A98U U134G G140U U145A
G62A C69U G80U
G62U A110U
U61A G67C U77G G117U
A64U G67A A98G A137G U146A U148G
A66C C85U C103U A120G C123A
A66G C96U A138U U151A
A66U G152A
A66G A91G C96U A97U C116U
G62A C79A A119G
U61A U102C A138G
U61G C87A C95G
U61C C76A C95U U101C C108G G112U
G62C C108A U135G
G65A G74C G140U A147G
U61A A89G C95U C114G G126A
U61G G67C G74A C105G G126A G136A
A60U C76A G92U A107G C123U G126C U145G
A66U C93U
G65U G71U C93A A115C U145A
A64C C93U
A66C A142U
A64U G80A U82G C95U
G65A G67U G88U G136C U139C G143A
A66U G74C
A66G A91U
A66G A91C
A66C A91G A98U C131A U139A
C63U A64G G83C
U61A C108A
U61A C108G
G62A A64C C85U C95G C105G A121U U134G U139G U151C
U61A A107G
A66C G84A
A66G C85U G86U
A66U U82A G88C C96U U102A
G62A A89G A91C U101C C132U
G62C C79A
G65A C72U A98G A107G
G62C G67U A91G U111G A120G C149G
A66U U144A
A66U C93A C96A A137C
G65C C85U A119U C123U
U61A A107U U127G G128C U148A
A66C G84U U90G U139G G143A
U61A C99G U104A U139G
G65A C69U C76U U78C C79U G86C
A66U C96A C108G
C63A G83A G92A
A60G G71U C79A G88U C116U
C63G G67A A106U C108G G117A
C63G G83A G86U A120G
C63U C87U A97U C99U G100A G124C A137U
U61A C95A A110G
U61A A73G C79U C87G G141A
G62A C75U U78G C96A U134C A138C
A66U A73C U78C G88U A107G
A60G G62C G70C
G62C U78A A106G U139A U148G
U61A G71A A91G G92U G141C
A60U C87A A98C A120G
G65A G67A G70C G80C G81A C93A C108A G124A U144A
A64G G68A C87A U148A
U61G C75U U78G G94U C95U C123A A142C

Polymerase ribozyme fitness (log ratio), -1.77:
A60G G143U

— the RNAGym collection of RNA variant scans (doi:10.1073/pnas.2313332121)
